Among the data in article PMC10726135 are binding signal (log2 normalized intensity) values, retold here.

This is one part of the list. At the low end of the ranking, values are background and their order means little. Measured with an extract: partners may take part in the binding.

This assay deals with T1, HNF4alpha2 (COS-7 nuclear extract) (UniProt P41235).
T1 sequence: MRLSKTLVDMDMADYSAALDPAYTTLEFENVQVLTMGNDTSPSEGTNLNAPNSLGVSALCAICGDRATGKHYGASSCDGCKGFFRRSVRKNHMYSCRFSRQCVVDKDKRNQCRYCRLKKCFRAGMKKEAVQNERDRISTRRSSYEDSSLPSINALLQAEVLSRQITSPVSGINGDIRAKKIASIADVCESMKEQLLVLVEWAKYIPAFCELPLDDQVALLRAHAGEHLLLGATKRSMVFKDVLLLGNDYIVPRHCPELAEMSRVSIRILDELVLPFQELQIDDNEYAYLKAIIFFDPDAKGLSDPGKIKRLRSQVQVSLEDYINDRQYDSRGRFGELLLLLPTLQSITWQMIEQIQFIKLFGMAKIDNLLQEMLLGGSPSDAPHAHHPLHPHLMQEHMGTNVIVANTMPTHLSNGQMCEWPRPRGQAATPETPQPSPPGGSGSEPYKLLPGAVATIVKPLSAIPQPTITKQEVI
The assay can be described thus: protein-binding microarray. To be noted: COS-7 nuclear extract on double-stranded Agilent 4x180k PBM; binding buffer, salt, pH and temperature not given; high values mean tight binding; double strand, one strand shown; sequences stand for … in …GCCTAGGGAGATTAGAGTATCGGTCGA
On to CATTTGGAGAGAGTTTGGCCCCAGTTCCCA, for which the binding signal (log2 normalized intensity) was found to be 1.67.

Take TTTCACAGTCGATCTTTGACCGCTGCCTCC: the binding signal (log2 normalized intensity) was determined as 4.23.

In the case of TGCTGCTCTAGATGAGGGGGAAAGGGGTTG, the binding signal (log2 normalized intensity) was -1.13.

For ACTGACCTTGTTGCCCACCCCCCAAGTAGA, the binding signal (log2 normalized intensity) worked out at 5.96.

For TCATGGAGGTGTGGGGAGTTCCTTCAGACC, the binding signal (log2 normalized intensity) was -0.641.

TTAGGAAACCTGGTAGCGTGTAGTAAAGCT: the binding signal (log2 normalized intensity) is -1.14.

Turning to AACCAAAGTAGAGGAATGCTGGTAAACACT, the binding signal (log2 normalized intensity) was -1.04.

As for CATCCAACTCCTTGAGAAGTACAACTTCAG, the binding signal (log2 normalized intensity) was -1.15.

On to AAAGGAGCTGGGCCTGTGCTGGGGACAAAA, for which the binding signal (log2 normalized intensity) is -1.09.

ACAAGGAGTCTCCACTATGACCTGTGCTTT: the binding signal (log2 normalized intensity) stood at 1.22.

On to CAGCATGTTATCAGTTAATTGCATTCTTTG, for which the binding signal (log2 normalized intensity) was determined as 0.488.

With CCGTCGGCACACACGCATGGCCGGCAGCAG, the binding signal (log2 normalized intensity) was -1.12.

Consider GTCACAGCAAAAGTAGCCTGGTCAGGAACA, for which the binding signal (log2 normalized intensity) was -1.14.

As for TGAGTAATGTGAAGACTTCGCTGGAATGTC, the binding signal (log2 normalized intensity) is 0.286.

On to CCAAACAGAACAAAGTCCAGTAAGGACAGT, for which the binding signal (log2 normalized intensity) was found to be 2.51.

Consider ACTAGCTCCATGTGAGTCACAAACAGTACT, for which the binding signal (log2 normalized intensity) was -0.313.

Consider GCTCTGTAAGGAGGATCAAGTGTGCACACT, for which the binding signal (log2 normalized intensity) came out at 3.12.

For CAAACAAAGGCACTTCTCTCTCCAAGGCAC, the binding signal (log2 normalized intensity) is -1.18.

On to GGAGTGCTCCCGCCTGACCTGGCCCCTGAG, for which the binding signal (log2 normalized intensity) came out at 0.791.

As for ACAAGGAATTGGAATTGGGAGGACAGATAA, the binding signal (log2 normalized intensity) is -0.85.

In the case of TATTGCCCTCAGGGTTTAGGCCTGGGACCT, the binding signal (log2 normalized intensity) is -0.673.

TTTGCTCCAGTTCCCAATAATTTCCTTATC: the binding signal (log2 normalized intensity) was -0.628.

TTCCAATAAACTTCATTTACCAAAAAACAG: the binding signal (log2 normalized intensity) was -0.884.

In the case of TCAGCACACTCTGGTACCATGGATGCACTC, the binding signal (log2 normalized intensity) was -0.163.

As to TAGTCCTATCACTGTCTAGCTGTGTAACCC, the binding signal (log2 normalized intensity) was 1.86.

As for TACAGACTTTCAACAAGGTGGAGACCTCTG, the binding signal (log2 normalized intensity) is -0.777.

On to ATGGAGATGGAGATGGCCTGGAGGTACCTA, for which the binding signal (log2 normalized intensity) was -1.11.

With ACCCCAAAACCCCCAAAGGTGAGTAGGGCC, the binding signal (log2 normalized intensity) was found to be 2.67.

As to TAGTACGCTCCCTGTGCCCACTTTCCTGGG, the binding signal (log2 normalized intensity) was -0.763.

In the case of TGATCACAAAGCCTGGGGTTTGGCTCCAAG, the binding signal (log2 normalized intensity) was -1.12.

Consider ACCTGACAGGCTGAGGATCTAATGCACCCA, for which the binding signal (log2 normalized intensity) was -1.12.

Take ACCTGCAAACCTTTGACCTTTCCATAGTTC: the binding signal (log2 normalized intensity) stood at 4.95.

On to CTTCGCTGGAATGTCACAGGGATTACGATC, for which the binding signal (log2 normalized intensity) is -0.148.

In the case of TTCTCTGAGGTAGTTGAGTGCCTCCATTTC, the binding signal (log2 normalized intensity) stood at 0.148.

For TTAGCCCAGTGAGACCCATTTTGGACTTTG, the binding signal (log2 normalized intensity) was determined as 6.34.

With TCTCCTCCTCCCATTCCAGCTCTTTACTCA, the binding signal (log2 normalized intensity) is 0.713.

AAGACATTGCCTGGCATTATCAGTGCTGCC: the binding signal (log2 normalized intensity) is -0.683.

On to ACAATTTTCAAGAACAAACAAATTTAGCAA, for which the binding signal (log2 normalized intensity) is -1.17.

With TTACAAAAGAAGAAGATGATATGGTCAGTG, the binding signal (log2 normalized intensity) amounted to 1.3.

For the sequence ATGGAGCTAAACAATTAAAGAACTCTTCAT, the binding signal (log2 normalized intensity) is -1.01.

As to GTTATCTTGGGGCTGATATCTCTCTGGCTG, the binding signal (log2 normalized intensity) was -0.733.

Take GGTAAATATTATCATTGCCTCTGGTATGCA: the binding signal (log2 normalized intensity) was determined as 0.714.

As for GGGTTTGGCTCCAAGGCTGAAGGTCTCGAG, the binding signal (log2 normalized intensity) was -0.624.

In the case of ATGAGTTCCCGGCAAGCCGACTTACAGGAC, the binding signal (log2 normalized intensity) is -1.23.

Consider ATAATTCAGTTTCATTGCACTTTGCCCTCT, for which the binding signal (log2 normalized intensity) stood at 8.65.

Turning to GACCTTTGAACACCACAAGTTTGAACTGCA, the binding signal (log2 normalized intensity) is 5.05.

As to GTGTGCCCCACTTATCTGCTATTCTGGCAA, the binding signal (log2 normalized intensity) was -1.24.

As for TGGACTTTGGTCCTGGTCAGACTTGCCACG, the binding signal (log2 normalized intensity) is 4.5.

As for TCTCTAGATCTCAGTTGGTCCAAGGTACAT, the binding signal (log2 normalized intensity) was determined as 3.18.

For the sequence GTGAATCCTTAAGATTCCTGCTCTAATGTT, the binding signal (log2 normalized intensity) was -0.0894.

Consider ACATTGTTAGCATAGCCTATCTGGTGCAGT, for which the binding signal (log2 normalized intensity) amounted to 1.01.

As for CAGTAACTCACTATCAGGAAACTCTTTCCT, the binding signal (log2 normalized intensity) was -1.11.

As for AGTAGAAGAGCCAAAATGTGTTAGGCAAGC, the binding signal (log2 normalized intensity) is -1.17.

As to TTCTCCTCCAGGACCTTGCCCTTTAGTTAT, the binding signal (log2 normalized intensity) is 3.87.

In the case of CTCAAGGAGGCCCAAAGGAAGGACTTCAGG, the binding signal (log2 normalized intensity) is -1.12.

GTATTTTTTCAACATATACTTTGAACTTGT: the binding signal (log2 normalized intensity) was found to be 3.47.

In the case of CAGGGTTGTGCAGGACTGCGTAACTTACAG, the binding signal (log2 normalized intensity) is -0.877.

On to GCCACCTGAAGGCAGGTGTGGGTTGGGGGT, for which the binding signal (log2 normalized intensity) was -0.893.

Consider ACTTCAAGGTCCATTTGAGGCTAAGTGTAG, for which the binding signal (log2 normalized intensity) is 0.989.

Turning to ATCAGAGCAAAGTTCAATTTCCAACAAATG, the binding signal (log2 normalized intensity) came out at 2.67.

TTCCAATCTGGTGAAAGATGATGAGGCGGT: the binding signal (log2 normalized intensity) is -1.05.

For ATATTATGTTTTGTTATCTGTGCCACAGGT, the binding signal (log2 normalized intensity) amounted to 1.44.

In the case of GTCCTGGTCACAGTAACAGGGAGTCTGTTG, the binding signal (log2 normalized intensity) is 0.215.

As for CAAACACAGATAGCATAATCAAAGAGAAAA, the binding signal (log2 normalized intensity) is -1.05.

As to CCTCATCTGTGTAGAAATTGTGGCTTGTGT, the binding signal (log2 normalized intensity) was found to be 2.2.

In the case of CTGTGGTCTAGCTTGTTCTCTCCCCCAACC, the binding signal (log2 normalized intensity) worked out at 4.15.

As to GGACAGAGATAACTGGGGGCATAGCCCATG, the binding signal (log2 normalized intensity) is -1.17.

As to GCGATCCGGGCTCCGGGCGCCGCGCGCGCC, the binding signal (log2 normalized intensity) was -1.11.

Regarding GGTATCCACAGGAGGCCCCATCGCACGGCA, the binding signal (log2 normalized intensity) is -1.14.

On to GAGGTGACTTGTCCTGAGATAAGTCACCTT, for which the binding signal (log2 normalized intensity) was -0.66.

For the sequence GAGGAGAATTGGCATTAATTCTTCTTTGAA, the binding signal (log2 normalized intensity) is -0.987.

As for GATGCTGGACTTCAGCCTCCAGAACTATGA, the binding signal (log2 normalized intensity) stood at 2.41.

With GAGAGGCTGCCATCCCACATTCCACAGACT, the binding signal (log2 normalized intensity) is -0.961.
